Source: PubChem BioAssay AID485294 (National Center for Advancing Translational Sciences (NCATS), 2010)
The whole screen tested about 370,000 compounds, of which about 150 (0.041%) were called active. This list was built around the results that the source calls inconclusive (neither active nor inactive); the mix of calls is not that of the screen. Calls come from the whole dose curve; as a rule, active = well fitted inhibition curve with a large enough effect; inconclusive = small, poorly fitted or top-dose-only effect; inactive = flat fitted curve, though single readings scatter. No potency is given beside an inconclusive call; the fits are too rough.

Each compound was assayed against Beta-lactamase (Escherichia coli (strain K12)) (UniProt P00811) (assay: qHTS Inhibitors of AmpC Beta-Lactamase (assay with detergent)). Conditions: AmpC hydrolysis of nitrocefin, absorbance 480 nm, 0.01% Triton; series mostly up to 114 µM.
In short: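 20 mM phosphate pH 7.0 + 0.01% (detergent screen) or 0.0001% Triton X-100; 5.3 nM AmpC reagent; cpd preinc 15 min RT; nitrocefin (800 uM stock) to start; A480 q20 s × 4 min; Activity was normalised to no-enzyme and no-compound control wells.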
Note: nearly all actives have a fitted effect of over 25% in size.
Potency is the fitted concentration of half-maximal effect; tags give direction and shape of the fitted curve.

Chain of UniProt P00811 (P00811 whole entry, looked up): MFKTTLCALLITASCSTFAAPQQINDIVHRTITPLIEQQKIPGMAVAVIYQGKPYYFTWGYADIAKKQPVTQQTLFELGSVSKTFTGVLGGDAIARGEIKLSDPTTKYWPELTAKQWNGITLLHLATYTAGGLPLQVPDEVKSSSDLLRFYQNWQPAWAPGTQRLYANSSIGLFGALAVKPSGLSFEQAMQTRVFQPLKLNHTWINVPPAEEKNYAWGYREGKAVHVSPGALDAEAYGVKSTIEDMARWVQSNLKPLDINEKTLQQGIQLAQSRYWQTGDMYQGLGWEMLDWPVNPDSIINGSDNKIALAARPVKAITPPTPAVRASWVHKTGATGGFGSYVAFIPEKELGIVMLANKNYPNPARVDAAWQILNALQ

| Compound | Potency |
| --- | --- |
| COc1ccc(OC)c(C(c2nnnn2Cc2ccco2)N2CCN(C)CC2)c1 (stereo not drawn) | inactive |
| O=[N+]([O-])c1ccc(/C=N/Nc2ccccn2)cc1 | inconclusive [inhibitor, full curve, poor fit] |
| CCCCc1cc2ccccc2c(OCCN(C)C)n1 | inconclusive [inhibitor, partial curve] |
| COc1ccccc1N1CCN(S(=O)(=O)c2ccc(Cl)s2)CC1 | inactive |
| N=C1C(=O)OCC1c1ccccc1NC(=O)c1ccccc1 (stereo not drawn) | inconclusive [inhibitor, full curve, poor fit] |
| Cc1ccc(OCC(=O)N/N=C2\CC(=O)CC(C)(C)C2)c(Br)c1 | inconclusive [inhibitor, partial curve, poor fit] |
| COc1ccc(Oc2cccc(Cl)c2CNC(=O)CCCC(=O)O)cc1 | inconclusive [inhibitor, full curve, poor fit] |
| Cn1c(C(F)(F)F)nc2c(=O)oc3ccccc3c21 | inconclusive [inhibitor, partial curve] |
| O=C(CC1CCCCC1)Nc1ccccc1-c1ccccc1 | inconclusive [inhibitor, full curve, poor fit] |
| Cc1cc(NC(=O)CCCC(=O)NCc2cccs2)no1 | inconclusive [inhibitor, full curve, poor fit] |
| O=C(Nc1cccc(NC(=O)c2ccco2)n1)c1ccco1 | inactive |
| COc1ccccc1C(=O)NC(=O)COC(=O)c1cccc(NC(C)=O)c1 | inactive |
| Cc1cccc(C(=O)N2CCN(Cc3nc4sc5c(c4c(=O)[nH]3)CCCC5)CC2)c1 | inactive |
| CC(C)NC(=O)NC(=O)COC(=O)c1ccc(S(=O)(=O)Nc2ccccc2)cc1 | inconclusive [inhibitor, full curve, poor fit] |
| CCn1c2ccccc2c2cc(C3C(C#N)=C(C)NC(C)=C3C#N)ccc21 | inactive |
| COCCn1c(SCC(=O)NNC(=O)Cc2ccccc2)nc2ccccc2c1=O | inconclusive [inhibitor, single point] |
| Cc1ccc(C)c(Cn2nnc(C(=O)Nc3ccc4c(c3)OCCO4)c2N)c1 | inconclusive [inhibitor, partial curve, poor fit] |
| Cc1nn(-c2ccccc2)c(N)c1C1(O)C(=O)N(C(C)C)c2ccccc21 (stereo not drawn) | inactive |
| Cc1ccc(SCc2nnc(N)s2)cc1 | inconclusive [inhibitor, single point] |
| O=C(COc1ccc(Br)cc1Cl)NC1CCN(Cc2ccccc2)CC1 | inactive |
| CC(=O)Nc1nc2ccccc2n1CCOc1ccccc1Cl | inactive |
| O=C(/C=C/c1ccncc1)c1ccc(NC(=O)c2ccccc2F)cc1 | inconclusive [inhibitor, partial curve] |
| CN(C)CCNC(=O)C(=O)Nc1ccc2c(c1)N(S(=O)(=O)c1cccs1)CCC2 | inconclusive [inhibitor, full curve, poor fit] |

| Compound | Potency |
| --- | --- |
| O=C1NC(c2ccccc2O)Nc2ccccc21 (stereo not drawn) | inactive |
| CCOC(=O)Cc1nn(CCc2ccccn2)c(=O)c2ccccc12 | inconclusive [inhibitor, full curve, poor fit] |
| O=C(N/N=C/c1cccs1)c1c[nH]c2ccccc12 | inconclusive [inhibitor, full curve] |
| OC(CNCc1ccco1)Cn1c2ccccc2c2ccccc21 (stereo not drawn) | inconclusive [inhibitor, full curve, poor fit] |
| CCN(CC)S(=O)(=O)c1cccc(C(=O)Nc2cc(C)on2)c1 | inconclusive [inhibitor, full curve, poor fit] |
| CCc1nc(Nc2ccccc2F)c2oc3ccccc3c2n1 | inactive |
| COc1cccc(C2CC(c3ccc(C(C)C)cc3)n3nc(N)nc3N2)c1 (stereo not drawn) | inconclusive [inhibitor, partial curve, poor fit] |
| CCOC(=O)c1cc(-c2cccc(C(F)(F)F)c2)nc2nc(SC)[nH]c(=O)c12 | inconclusive [inhibitor, full curve, poor fit] |
| O=C(NCCO)C(=O)Nc1cc2c3c(c1)CCN3C(=O)CC2 | inactive |
| O=c1c2ccccc2nc(-c2ccoc2)n1-c1ccccc1 | inconclusive [inhibitor, full curve, poor fit] |
| CN(CC(=O)Nc1c(Cl)cccc1Cl)C(=O)C1CSC2(C)CCC(=O)N12 (stereo not drawn) | inconclusive [inhibitor, partial curve, poor fit] |
| CSc1ncc(/C=C2/C(=O)NC(=O)N(C3CCCCC3)C2=O)cn1 | inactive |
| C=CCn1c(SCc2cc(=O)n3cc(C)ccc3n2)nnc1-c1cccc(C)c1 | inconclusive [inhibitor, partial curve, poor fit] |
| Cc1nc2sc(C)c(C)c2c(=O)o1 | inconclusive [inhibitor, full curve, poor fit] |
| CSCCC(NS(=O)(=O)c1ccc(C)cc1)C(=O)N1CCN(C(C)=O)CC1 (stereo not drawn) | inconclusive [inhibitor, full curve, poor fit] |
| COc1cc(C(=O)NCCc2ncccc2C)ccc1OC1CCN(C(C)=O)CC1 | inactive |
| COc1ccccc1OCc1ccc(C(=O)Nc2ccccc2F)cc1 | inactive |
| CCOC(=O)c1sc(Nc2cccc(Cl)c2)nc1C | inactive |
| NC(=O)C1CCCN(C(=O)c2ccc(-c3cccc(Cl)c3Cl)o2)C1 (stereo not drawn) | inactive |
| COc1ccc(NC(=S)N2CCC(NC(=O)c3ccco3)CC2)cc1 | inconclusive [inhibitor, full curve, poor fit] |
| CCOC(CCn1c(SCc2ccc([N+](=O)[O-])cc2)nc2ccccc2c1=O)OCC | inconclusive [inhibitor, partial curve, poor fit] |
| O=C(N/N=C/c1ccc(Br)cc1)c1ccc(Br)o1 | inconclusive [inhibitor, partial curve] |
| Cc1cccc(NC(c2ccc(C)s2)c2ccc3ccc(C)nc3c2O)n1 (stereo not drawn) | inconclusive [inhibitor, partial curve, poor fit] |

| Compound | Potency |
| --- | --- |
| N#Cc1cc(-c2ccccc2)nc(Oc2ccc(Cl)cc2)n1 | inconclusive [inhibitor, single point] |
| COC(=O)c1[nH]c2ccc(C)cc2c1NC(=O)CN1CCN(C(=O)c2ccccc2)CC1 | inconclusive [inhibitor, partial curve] |
| CCOC(=O)/C(C#N)=C\c1ccco1 | inconclusive [inhibitor, partial curve] |
| Cc1nn(-c2nnc(C)c(=O)[nH]2)c(C)c1SCC(=O)Nc1ccc(F)cc1 | inconclusive [inhibitor, full curve] |
| CCCCN(C)C(=O)C1CCN(Cc2ccccn2)CC1 | inconclusive [inhibitor, full curve, poor fit] |
| Cc1cc(=O)c2c(o1)CC(C)(C)CC2=O | inconclusive [inhibitor, full curve, poor fit] |
| CCOC(=O)c1c(C)[nH]c2ccc(O)cc12 | inconclusive [inhibitor, partial curve, poor fit] |
| COc1ccc2c(c1)SCC/C2=C\CN1C(=O)CCC1=O | inconclusive [inhibitor, full curve, poor fit] |
| COC(=O)c1ccc(COc2ccc(Cl)cc2)o1 | inconclusive [inhibitor, full curve, poor fit] |
| CCOc1cccc2sc(N(CCN(C)C)C(=O)c3ccc4ccccc4c3)nc12 | inconclusive [inhibitor, full curve] |
| Cc1cccc(N2CC(C(=O)O)CC2=O)c1 (stereo not drawn) | inconclusive [inhibitor, full curve, poor fit] |
| COC(=O)CN=Cc1c(C)[nH]n(-c2ccccc2)c1=O | inconclusive [inhibitor, full curve, poor fit] |
| NC(=O)c1ccc([N+](=O)[O-])cc1SCc1ccccc1 | inconclusive [inhibitor, full curve, poor fit] |
| O=C(Nc1ccc(Cl)cc1)Nc1nc(-c2ccccc2)cs1 | inconclusive [inhibitor, single point] |
| Cc1c(Cc2c(C)n(C)n(-c3ccccc3)c2=O)c(=O)n(-c2ccccc2)n1C | inconclusive [inhibitor, partial curve, poor fit] |
| CCN(C(=O)c1cccn(Cc2cccc(Cl)c2)c1=O)c1ccccc1 | inactive |
| CN(CCOc1ccccc1)C(=O)c1cc([N+](=O)[O-])ccc1N1CCOCC1 | inconclusive [inhibitor, full curve, poor fit] |
| O=C(CNC(=O)c1ccc(Br)o1)Nc1ncccc1O | inconclusive [inhibitor, partial curve, poor fit] |
| Clc1ccc(-c2nn3c(-c4ccccn4)nnc3s2)c(Cl)c1 | inconclusive [inhibitor, partial curve, poor fit] |
| CCOC(=O)c1cc2c(=O)n3ccccc3nc2n(CC2CCCO2)c1=NC(=O)c1ccc(F)cc1 (stereo not drawn) | inactive |
| COCCNC(=O)C(c1cccs1)N(CCc1ccccc1)C(=O)Cn1nnc2ccccc21 (stereo not drawn) | inconclusive [inhibitor, single point] |
| O=C(CCCCn1c(=O)[nH]c2ccsc2c1=O)NCc1ccc2c(c1)OCO2 | inconclusive [inhibitor, partial curve] |
